In all, about 270,000 compounds went through this assay and about 620 (0.23%) were called active. Inconclusive means that the source gave no clear call. Such entries were picked first, then a sample of the others. Calls come from the whole dose curve; as a rule, active = well fitted inhibition curve with a large enough effect in the polarisation, with a control signal flat (not every such curve was filed as active); inconclusive = small, poorly fitted or top-dose-only effect, or effect the other way, or a change in a side signal; inactive = no such curve, though single readings can be large or run the other way; the % refers to the polarisation. Potencies beside an inconclusive call are fits to weak or partial responses and may not hold up. A note “side channel” means that the fit belongs to a control or component signal, not to the main read-out.
Target: Menin (Homo sapiens) (UniProt O00255)
Assay: qHTS Assay for Inhibitors Targeting the Menin-MLL Interaction in MLL Related Leukemias: Competition With Texas Red Labeled MLL-derived Mutant Peptide; for FP activity change, negative = inhibition: % of control where 0% means no effect
Conditions: fluorescence polarization; FP activity change, negative = inhibition: at 61.6 µM (top of the series)
Potency is the fitted concentration of half-maximal effect; tags give direction and shape of the fitted curve or compound fluorescence and quenching.

Chain of UniProt O00255 (O00255 whole entry, looked up): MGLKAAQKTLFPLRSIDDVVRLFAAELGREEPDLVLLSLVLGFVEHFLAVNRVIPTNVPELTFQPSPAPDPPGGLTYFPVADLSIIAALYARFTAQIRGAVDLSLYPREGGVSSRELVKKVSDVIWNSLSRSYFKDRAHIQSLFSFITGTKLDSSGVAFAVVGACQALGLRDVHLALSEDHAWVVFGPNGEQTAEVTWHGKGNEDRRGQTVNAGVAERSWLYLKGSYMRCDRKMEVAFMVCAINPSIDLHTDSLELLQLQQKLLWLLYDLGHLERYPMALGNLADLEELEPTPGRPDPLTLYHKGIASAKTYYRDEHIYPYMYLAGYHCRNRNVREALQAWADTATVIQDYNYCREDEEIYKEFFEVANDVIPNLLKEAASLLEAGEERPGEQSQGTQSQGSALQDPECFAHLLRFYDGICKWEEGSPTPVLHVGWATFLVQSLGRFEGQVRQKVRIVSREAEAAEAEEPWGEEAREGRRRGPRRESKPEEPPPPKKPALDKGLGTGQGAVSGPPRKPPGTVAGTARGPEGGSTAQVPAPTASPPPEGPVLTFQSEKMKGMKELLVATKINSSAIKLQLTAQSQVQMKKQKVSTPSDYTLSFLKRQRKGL

Row | SMILES | Potency | FP activity change, negative = inhibition
1 | Cc1ccc2c(c1)-c1c(ssc1=S)C(C)(C)N2C(=O)c1ccco1 | inconclusive: 17.8 µM [quencher, side channel, partial curve] | 
2 | COC(=O)C1=C(C(=O)OC)[C@@H]2Nc3ccccc3[C@@]23C[C@@H](C(=O)OC)N(S(=O)(=O)c2ccc(OC)cc2)C3=N1 |  | inactive: 5.16% [at 11.7 µM]
3 | O=C(NCC12CC3CC(CC(C3)C1)C2)c1nn2cccnc2c1Cl | inconclusive: 5.62 µM [inhibitor, full curve, poor fit] | 
4 | COc1ccc(-c2ccc(Nc3ccc(S(=O)(=O)N4CCCC4)cc3)nn2)cc1OC | inconclusive: 22.4 µM [quencher, side channel, partial curve] | 
5 | O=C(CSCc1ccccc1)NNC(=S)Nc1cccc(Cl)c1Cl | inconclusive: 20 µM [quencher, side channel, partial curve] | 
6 | CCO[C@@H]1OC(C(=O)N2CCCCCCC2)=C[C@H](c2csc3ccccc23)[C@H]1CCCO | inconclusive: 3.98 µM [fluorescent, side channel, full curve] | 
7 | CC(C)C(=O)NC(c1ccc([N+](=O)[O-])cc1)c1c(O)ccc2ccccc12 (centres undefined) | inconclusive: 31.6 µM [quencher, side channel, single point] | 
8 | Cc1ccc(S(=O)(=O)C(C#N)c2nc3ccccc3nc2N2CCC(C)CC2)cc1 (centres undefined) | inconclusive: 31.6 µM [quencher, side channel, partial curve] | 
9 | COc1ccc(CN2CCN(CCSc3ccc(C)cc3)CC2)c(OC)c1OC | inconclusive: 11.2 µM [inhibitor, partial curve] | 
10 | O=C(O)CCN1C(=O)/C(=C2\C(=O)N(Cc3ccc(F)cc3)c3ccccc32)SC1=S | inconclusive: 39.8 µM [quencher, single point] | 
11 | NC(=O)CCC(C(=O)O)N1C(=O)c2ccc(O)cc2C1=O (centres undefined) | inconclusive: 31.6 µM [inhibitor, single point] | 
12 | CCN(c1ccccc1)S(=O)(=O)c1cc(C(=O)Nc2ccc(F)c(F)c2)ccc1F | inconclusive: 8.91 µM [quencher, side channel, partial curve] | 
13 | O=C(Nc1ccc(Br)cc1)c1ccc(F)c(S(=O)(=O)NCc2cccs2)c1 | inconclusive: 14.1 µM [quencher, side channel, partial curve] | 
14 | O=C(Nc1nccs1)c1ccc(-c2ccc([N+](=O)[O-])cc2)o1 | inconclusive: 11.2 µM [quencher, side channel, partial curve] | 

— PubChem BioAssay AID1768 (National Center for Advancing Translational Sciences (NCATS), 2009)
